# Laboratory results from ChEMBL document CHEMBL4888484, “Replenishing the malaria drug discovery pipeline: Screening and hit evaluation of the MMV Hit Generation Library 1 (HGL1) against asexual blood stage Plasmodium falciparum ,using a nano luciferase reporter read-out” (2022).
# Screen size: about 150,000 compounds; about 540 (0.36%) showed an effect of 50% or more. The list shows a part of the results.
# System: Plasmodium falciparum
# Test: Primary screen in NF54 nanoGlo assay, in single point, at 2uM, 72h; a lower Z score goes with more inhibition
# Format: functional, Erythrocyte
# Settings: timepoint 72 hour
SMILES,% Inhibition,Z score
C[C@@H](CCc1ccccc1)NS(=O)(=O)CC1CCCCC1,-2%,0.21
CCc1nsc(N2CCC(c3ncccn3)CC2)n1,-3%,0.34
CC(Nc1ccc(C#N)nc1)C1CCCOC1 (stereo not drawn),1%,-0.15
Cn1nc(CN2CCc3[nH]cnc3[C@@H]2C2CC2)c2c(Cl)cccc21,-4%,0.57
O=C(Cc1ccn(CC(F)(F)F)n1)N1CC[C@H](O)C12CCCC2,0%,-0.05
CCCc1ccc(-c2cn(CCN3CCNC3=O)nn2)o1,-12%,1.74
CN1CCC([C@H]2CCN(S(=O)(=O)c3cc(F)cc(F)c3)C2)CC1,-9%,1.3
Cc1sc2cc(C(=O)NCc3ccncc3)[nH]c2c1CN1CCCCC1,1%,-0.24
CN(CCOCC1CC1)C(=O)Nc1nc2c(s1)CCCC2,-7%,0.88
C[C@@H](CN1CCCCC1)NS(=O)(=O)c1cccnc1,6%,-0.92
O=C(CCc1c(-c2ccc(Cl)cc2)nc2ccc(-c3ccccc3Cl)cn12)NCc1ccccc1,-1%,0.27
O=C(O)CN(C1CCC1)S(=O)(=O)c1ccc(C(F)(F)F)s1,-8%,0.79
O=C(Nc1cccc(C(=O)N2CCc3ccc(Cl)cc32)c1)c1ccco1,-7%,0.66
COc1cc(C)c(CN2CCN(C)[C@]3(CCC(=O)N(C)CC3)C2)cc1C,-7%,0.61
Cc1nnc2n1CC[C@@H](N(C)Cc1cc(F)ccc1F)CC2,-6%,0.92
O=C1C[C@H](N2CCC(c3nc4ccccc4s3)CC2)C(=O)N1,0%,0.03
CC[C@H](NC(=O)N1CCN(Cc2ccc3c(c2)OCO3)CC1)c1nc(C)no1,-6%,1.13
CC(=O)N1CCN(Cc2c(-c3ccc(Cl)cc3)nc3ccc(-c4cccc(C)c4)cn23)CC1,-14%,2.1
Fc1ccc(N2CCCCC2)c(NCc2cc[nH]n2)c1,-4%,0.62
CCN(CCOc1ccc([C@H]2CC[C@H](N(C)C(=O)c3ccc(Cl)cc3)CC2)cc1)C1CC1,-11%,1.07
Clc1ccc2nc(N3CCC[C@H](c4nccn4CC4CC4)C3)ccc2c1,-16%,1.6
COCCCNC(=O)Nc1ncnn1C,-8%,0.89
CC(C)c1scnc1C(=O)Nc1ccc(S(C)(=O)=O)cc1,0%,-0.03
CC1CC(C)CN(C(=O)c2ccc(Cl)c(S(=O)(=O)N3CCCCCC3)c2)C1 (stereo not drawn),5%,-0.84
